According to article PMC12136788:
This is one part of the list.

T1: UNK ZnF1-6 (called full-length) (human, UniProt Q9C0B0 30-357)
T1 sequence: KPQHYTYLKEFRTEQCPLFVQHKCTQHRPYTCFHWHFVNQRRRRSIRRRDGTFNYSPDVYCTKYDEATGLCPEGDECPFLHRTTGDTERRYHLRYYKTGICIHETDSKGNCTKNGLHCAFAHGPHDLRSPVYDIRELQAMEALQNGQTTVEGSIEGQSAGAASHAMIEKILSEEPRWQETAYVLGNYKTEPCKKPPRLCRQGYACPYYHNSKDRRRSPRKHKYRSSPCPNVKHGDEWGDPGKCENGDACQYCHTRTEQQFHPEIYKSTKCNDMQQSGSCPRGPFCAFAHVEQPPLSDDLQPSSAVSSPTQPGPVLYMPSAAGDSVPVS

B1: chr22:21445082:21445183:+|CDS|ENSG00000169635|msi1|FALSE|bound_elsewhere (ssRNA)
RNA: GGGAGUUCUACAGUCCGACGAUCCCUGUGUGACGUCAUCAUCAUGGUGGAGAACUCCAUCUUCCGGGCCCACAAGAACGUCCUAGCCGCCAGCAGCAUCUAUUUCAAGUCCCUGGUCCUGCACGACAACCUCAUCAACCUGGACAACAGAGGAUUGAGCAUCA
B2: chr7:27153715:27154908:-|three_prime_utr|ENSG00000122592|control|control|control (ssRNA)
RNA: GGGAGUUCUACAGUCCGACGAUCAAAAGACACCCCCAACCCCAGGCCAGCCGGCCCUGCUCUGGCGCGUCCAAAAUACUACCUAGCACAGGCCUCUGCUCGAGGCACCCCCAAACUACCUAUGUAUCCAGCCCCAGAGGGCCUCAACAGAGGAUUGAGCAUCA
B3: chr17:8173470:8173636:-|3pUTR|ENSG00000179029|msi1|FALSE|unique (ssRNA)
RNA: GGGAGUUCUACAGUCCGACGAUCUGUUUGUCUGUAUCGUCAGGUGGGAUAAUCCUUACCUGUUCCUCCUCCGGAGGGCAGAUUAGAACAUGAUGAUUGGAGAUGCAUGAAACGUGAUUAACGUCUCUGCGUAAUCAGGACUUGCAACAGAGGAUUGAGCAUCA
B4: chrX:129805617:129805718:-|3pUTR|ENSG00000188706|msi1|total|mutant (ssRNA)
RNA: GGGAGUUCUACAGUCCGACGAUCUCUUUUCCCAUCCGAUAUAUGUAAGCCGUUGCCGCCGAGAUAAUAAUUGACAUUUCUCGCCGACUACCCAGAAACUUUUUUAAUACCUGUGCCAUUCUCAAUAAGAAUUUAUGAGAUGCCCAACAGAGGAUUGAGCAUCA
B5: chr1:205620050:205620151:-|CDS|ENSG00000158711|unk|total|mutant (ssRNA)
RNA: GGGAGUUCUACAGUCCGACGAUCGCCAAUGGAACUUCCAGAGAAUUUGUCACUGGAGCCUAAAGACCAGGAUUCAGUCUUGCCCGAAAAGGACAAAGUAAAUAAUUCAUCAAGAUCCAAGAAACCCAAAGGGUCCGAACUGGCCAACAGAGGAUUGAGCAUCA
B6: chr20:32237940:32238012:+|3pUTR|ENSG00000101346|msi1_unk|total|mutant (ssRNA)
RNA: GGGAGUUCUACAGUCCGACGAUCUUUCAAAGAUACAAAUAUUUACACCGUUUUAAUCAUGUAAUAUAUACAAUUUAAUGUCCCCGUGUUUUACUUAACCGUGUAUCAUGUUUUCCCUGUUGGUAUGCCGCCUGGAUAAAUGCUCAACAGAGGAUUGAGCAUCA
B7: ENSG00000070961:be:win_2251|CDS|ENSG00000070961|bound_else_gene|NA|bound_elsewhere_windowed (ssRNA)
RNA: GGGAGUUCUACAGUCCGACGAUCGAGCAAGAGAGGAUAGACAAGAUUUGGCCAAAACUUCGAGUACUUGCAAGAUCAUCUCCUACUGAUAAGCAUACACUGGUUAAAGGUAUAAUUGACAGCACUGUCUCAGACCAACGCCAGCAACAGAGGAUUGAGCAUCA
B8: chr10:74118697:74119064:+|3pUTR|ENSG00000035403|msi1|FALSE|unique (ssRNA)
RNA: GGGAGUUCUACAGUCCGACGAUCGAAGAAAUCACAGAAUCAUAUGAUUCUGCUUUUACCAUGCCCCUGAGCAAUGUCUGUGCUAGGGAAACUUCCCGUCCCAUAUCCUGCCUCAGCCCGCCAAGGUAGCCAUCCCAUGAACACCAACAGAGGAUUGAGCAUCA
B9: chr3:127036428:127036535:+|3pUTR|ENSG00000114554|msi1|FALSE|unique (ssRNA)
RNA: GGGAGUUCUACAGUCCGACGAUCGCGUGUGGCUGGGGCGUGGCCACCACAGAGCACAUGGCUGUGUCUAGGCGCAAGCACUUUAGCAGUAUCUGUUUACAUGCGCAAGGAUCAAGCCGACUACCUGUGCUGUCUACUGGGACACAACAGAGGAUUGAGCAUCA
B10: chr1:26899991:26900442:-|CDS|ENSG00000198746|control|control|control (ssRNA)
RNA: GGGAGUUCUACAGUCCGACGAUCUACCUGGUAGUGAGCGGUAUCCCCUCCGUGUUGCGCUCGGCCCAUUUACGGAGCUAUUUUAGCCAGUUCCGAGAAGAGCGCGGCGGUGGCUUCCUCUGUUUCCACUACCGGCAUCGGCCUCAACAGAGGAUUGAGCAUCA
B11: chr5:115137525:115137627:-|CDS|ENSG00000152503|unk|FALSE|unique (ssRNA)
RNA: GGGAGUUCUACAGUCCGACGAUCUUUAGCAGAAGAGGCUAUUCUUUGUUUUAUCUUAGUGUAAUGGAGAUACUGUUUUUUCUUAGUGUAAUGGAGAGAGGGCUAAAGAAGAAGCAAUUACACAUUUUGAAAAGCUCUUUGAAGCAACAGAGGAUUGAGCAUCA
B12: chr2:86144366:86144519:-|CDS|ENSG00000132305|unk|FALSE|unique (ssRNA)
RNA: GGGAGUUCUACAGUCCGACGAUCAAACACAUUUAAAUUACUGUCAUAUGCUUCCUAUUGCAUUGAGCAUGGUGAUCUGGAGCUAGCAGCAAAGUUUGUCAAUCAGCUGAAGGGGGAAUCCAGACGAGUGGCACAGGACUGGCUCAACAGAGGAUUGAGCAUCA
B13: chr19:7961171:7961272:-|3pUTR|ENSG00000066044|msi1|FALSE|unique (ssRNA)
RNA: GGGAGUUCUACAGUCCGACGAUCGGCGGGAUUCCCGCUUCUGAAACUCCCCCUGGAGUCUCACUCCCACACAUGCCCAUAGCUAGCAUUCAACAGAGAACUCUGUCUUAAGCUUCAACUGUGAAAAUGAUGACGGGCUUGUAGCAACAGAGGAUUGAGCAUCA
B14: chr6:138432586:138432687:-|CDS|ENSG00000135540|unk|FALSE|unique (ssRNA)
RNA: GGGAGUUCUACAGUCCGACGAUCGGAGCCCUGGGAAUACAAAUCCUCAGGUAAUGGAAGGGCAUCCCCCCUGAAGCCGCAUUUAGCAACUCCUGGCUAUUCCACUCCCACAAGUAACAUGAGCAGCUGCAGUUUGGACCAAACCAACAGAGGAUUGAGCAUCA
B15: chr14:103559255:103559356:-|3pUTR|ENSG00000166170|msi1|FALSE|unique (ssRNA)
RNA: GGGAGUUCUACAGUCCGACGAUCGCUUAACGGGGUGGGGUUUUUUUGUUUGUUCAGACAGUCUGUUCUUUUGUAAACAUUUUUAGUUGGAAAAACAGCAUCUGCAUUUUCCCCAUCCUCUACGUUUUAGAGAGGAAUCUUGUUCAACAGAGGAUUGAGCAUCA
B16: chr17:5346795:5346911:+|CDS|ENSG00000029725|unk|total|mutant (ssRNA)
RNA: GGGAGUUCUACAGUCCGACGAUCAGAACUGAAUCAUUAUCUGGAAGCUGAGAAAUCUUGCCGGACUGAUCCCGAGAUGUAUGCCGCUGUUUUGAAUACUCAGAAAUCUGUUCUACAGGAAGAUGCUGAGAAACUGCGGAAAGACAACAGAGGAUUGAGCAUCA
B17: ENSG00000154556:stop:overlap|stop_codon|ENSG00000154556|stop_codon|NA|stop_codon (ssRNA)
RNA: GGGAGUUCUACAGUCCGACGAUCCUUCUUCCCCAUCAAGAGCAAAAGUUACUCAGGGCUCAACGGCAACCCCUCCAGUGAGUUAGAUUACUGUAGCACUUACAGACAGCACUUGGAUGUCCCUCGGGACUCACCAAGAGCCAUCAACAGAGGAUUGAGCAUCA
B18: chr11:62752106:62752207:-|CDS|ENSG00000185670|msi1|total|mutant (ssRNA)
RNA: GGGAGUUCUACAGUCCGACGAUCGGCUCACAAUGAGGACCUGGCCAAACGCAGCAAACCAGAUCCAGAAGUGGGACCCCUUCCCGGGGUGCAGCCUCUCCCUGGCUCCCCAACAGCAGACAGACAGAGCAGCAGUGGUGGAGGCAACAGAGGAUUGAGCAUCA
B19: ENSG00000164751:stop:overlap|stop_codon|ENSG00000164751|stop_codon|NA|stop_codon (ssRNA)
RNA: GGGAGUUCUACAGUCCGACGAUCAAGUACACAGUCUGCAGCCACUGAAAUCAGGAAUCGAGAUGUCAGAAGUAAAUGCUCUUUAGAAACUAAAAUUGCUUCCUUUGAGGAAAAAAAUGCACCGUGUUUAAAUUCUUAAUAUUACAACAGAGGAUUGAGCAUCA
B20: chr10:47502154:47503543:-|CDS|ENSG00000204172|control|control|control (ssRNA)
RNA: GGGAGUUCUACAGUCCGACGAUCGGAGCUGGAUGACUGGCCAGUUGAGCUCAGGAAGGUUAUGUCAUCUAUUGGCAAUGAGCUAGCCAACAGCAUCUGGGAAGGGAGCAGCCAGGGGCAGACAAAACCCUCAAUAAAGUCCACCAACAGAGGAUUGAGCAUCA
B21: chr12:52702891:52703434:-|CDS|ENSG00000189182|control|control|control (ssRNA)
RNA: GGGAGUUCUACAGUCCGACGAUCCUUUGGUCCUUAUUGUCCUCCUGGGGGCAUCCAAGAGGUGACCAUUAACCAGAGCCUCCUAGAGCCACUUCACCUGGAGGUGGACCCUGAAAUUCAGAGGAUCAAGACCCAGGAGCGGGACAACAGAGGAUUGAGCAUCA
B22: chr19:6380113:6380214:-|3pUTR|ENSG00000125651|msi1|FALSE|unique (ssRNA)
RNA: GGGAGUUCUACAGUCCGACGAUCACUUCAGGCUCUCAGUGACCCUUCGACAUCCUGCUUGCUCCCUGACUCCCAGGGCCCCGUAGUUAGCAAUUCUGGAAAAGUUAAGCCAUCUCCUCCUCUGGCCCUUCCUUCUGGAAUCUUCAACAGAGGAUUGAGCAUCA

target: T1, UNK ZnF1-6 (called full-length); test: nsRBNS (natural sequence RNA bind-n-seq); RBNS binding buffer (assumed for nsRBNS): 25 mM Tris pH 7.5, 150 mM KCl, 3 mM MgCl2, 0.01% Triton X-100, 500 ug/ml BSA, 20 U/ml SUPERase-In, 4 C; UNK is unkempt and MSI1 is Musashi-1; names of the RNAs are library labels; protein concentration not given here; high values mean tight binding

| Binder | binding signal |
| --- | --- |
| B1 | 0.806 enrichment R |
| B2 | 1.45 enrichment R |
| B3 | 0.884 enrichment R |
| B4 | 0.637 enrichment R |
| B5 | 0.832 enrichment R |
| B6 | 0.548 enrichment R |
| B7 | 0.35 enrichment R |
| B8 | 0.654 enrichment R |
| B9 | 0.842 enrichment R |
| B10 | 0.513 enrichment R |
| B11 | 1.27 enrichment R |
| B12 | 0.785 enrichment R |
| B13 | 0.357 enrichment R |
| B14 | 0.879 enrichment R |
| B15 | 1.28 enrichment R |
| B16 | 0.778 enrichment R |
| B17 | 0.824 enrichment R |
| B18 | 0.887 enrichment R |
| B19 | 0.77 enrichment R |
| B20 | 0.885 enrichment R |
| B21 | 0.636 enrichment R |
| B22 | 1.13 enrichment R |
